From the supplement of paper PMC7238544
Structures can show the parent of a compound that is named as a salt. ± gives the standard deviation of the averaged measurements. Some of the results follow.

Columns and labels:
Details in all cases: priming compound concentration 100 µM
[1] = system: hAMSC donor 1; test: Hoechst total cell count ratio vs vehicle control; higher = more cells (less toxicity)
[2] = system: hAMSC donor 2; test: as above
[3] = system: hAMSC donor 1; test: transgenic luciferase activity (RLU/mg protein) fold change vs vehicle control (ratio); higher = more transgene expression
[4] = system: hAMSC donor 2; test: as above
[5] = system: hAMSC donor 2; test: transfection efficiency (EGFP+ cells / Hoechst count) fold change vs vehicle control (ratio); hAMSC are human adipose-derived mesenchymal stem cells given an EGFP-luciferase plasmid by lipofection; higher = enhanced transfection
[6] = system: hAMSC donor 1; test: as above
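Wherever Hoechst total cell count ratio vs vehicle control is given: compound added 30 min before Lipofectamine 3000 lipoplex delivery, triplicate-well means expressed against DMSO vehicle control wells of the same 96-well plate.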
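Wherever transfection efficiency (EGFP+ cells / Hoechst count) fold change vs vehicle control is given: compounds added 30 min before Lipofectamine 3000 lipoplex transfection, triplicate means relative to DMSO vehicle wells on the same plate, luciferase RLU normalized to BCA total protein.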
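Wherever transgenic luciferase activity (RLU/mg protein) fold change vs vehicle control is given: compounds in DMSO added 30 min before Lipofectamine 3000 transfection of pEGFP-Luc in 96-well plates, values are means of triplicate wells over DMSO vehicle wells on the same plate.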

Row | Structure (SMILES) | Hoechst total cell count ratio [1] | Hoechst total cell count ratio [2] | transgenic luciferase activity [3] | transgenic luciferase activity [4] | transfection efficiency [5] | transfection efficiency [6]
1 | COc1cccc2c1C(=O)c1c(O)c3c(c(O)c1C2=O)C[C@@](O)(C(C)=O)C[C@@H]3O[C@H]1C[C@H](N)[C@H](O)[C@H](C)O1 [Daunorubicin hydrochloride] | 0.000667 ± 0.00058 | 0.000667 ± 0.0011 | 0.0576 ± 0.084 | 0.000786 ± 0.00011 | 2.14 ± 3.7 | –
2 | Nc1ncnc2c1ncn2[C@@H]1O[C@H](CO)[C@@H](O)[C@@H]1O [Vidarabine] | 1.07 ± 0.16 | 0.791 ± 0.27 | 1.88 ± 0.68 | – | 0.811 ± 0.33 | 0.934 ± 0.2
3 | CCn1cc(C(=O)O)c(=O)c2cc(F)c(N3CCN(C)CC3)cc21 [Pefloxacin mesylate] | 1.63 ± 0.25 | 1.01 ± 0.16 | 0.497 ± 0.31 | – | 1.13 ± 0.2 | 0.678 ± 0.082
4 | CN1CCN(C2=Nc3cc(Cl)ccc3Nc3ccccc32)CC1 [Clozapine] | 1.5 ± 0.24 | 1.32 ± 0.11 | 0.257 ± 0.089 | – | 0.833 ± 0.27 | 0.668 ± 0.13
5 | CCC(C)(C)C(=O)O[C@H]1C[C@@H](C)C=C2C=C[C@H](C)[C@H](CC[C@@H]3C[C@@H](O)CC(=O)O3)[C@H]21 [Simvastatin] | – | – | 1.91 ± 1.5 | 1.11 ± 0.1 | 1.76 ± 0.12 | 1.87 ± 0.47
6 | Cc1c(C(=O)NN2CCCCC2)nn(-c2ccc(Cl)cc2Cl)c1-c1ccc(I)cc1 | – | – | 0.13 ± 0.078 | 0.499 ± 0.28 | 0.771 ± 0.074 | 0.532 ± 0.059
7 | COc1c2occc2cc2ccc(=O)oc12 [Methoxsalen] | 1.66 ± 0.14 | 1.39 ± 0.29 | 0.492 ± 0.27 | – | 0.671 ± 0.19 | 1.14 ± 0.22
8 | NC(=O)OCC(COC(N)=O)c1ccccc1 [Felbamate] | 1.24 ± 0.072 | 1.1 ± 0.26 | 0.812 ± 0.39 | 0.729 ± 0.065 | 0.895 ± 0.14 | 0.813 ± 0.14
9 | CN(C)[C@@H]1C(O)=C(C(N)=O)C(=O)[C@@]2(O)C(O)=C3C(=O)c4c(O)cccc4[C@@](C)(O)[C@H]3[C@H](O)[C@@H]12 [Oxytetracycline hydrochloride] | 1.37 ± 0.064 | 1.2 ± 0.28 | 0.537 ± 0.1 | – | 0.536 ± 0.11 | 0.666 ± 0.051
10 | Cc1cccc(CCN2CCC(C(=O)c3ccc(NS(C)(=O)=O)cc3)CC2)n1 [E-4031 dihydrochloride] | – | – | 1.02 ± 0.14 | 0.721 ± 0.19 | 0.724 ± 0.068 | 1.29 ± 0.038
11 | CN(C)CCCN1c2ccccc2CCc2ccccc21 [Imipramine hydrochloride] | 1.52 ± 0.22 | 0.955 ± 0.47 | 0.369 ± 0.19 | – | 0.795 ± 0.28 | 0.522 ± 0.22
12 | CN(C)CCOc1ccc(/C(=C(/CCCl)c2ccccc2)c2ccccc2)cc1 [Toremifene citrate] | 0.124 ± 0.03 | 0.0197 ± 0.005 | 0.000903 ± 0.00063 | – | 1.62 ± 2 | 0.862 ± 0.11
13 | Cc1cccc(Nc2ccccc2C(=O)O)c1C [Mefenamic acid] | 1.2 ± 0.07 | 1.12 ± 0.16 | 1.11 ± 1.1 | – | 1.01 ± 0.18 | 1.13 ± 0.062
14 | COC1=CC(=O)C[C@@H](C)[C@]12Oc1c(Cl)c(OC)cc(OC)c1C2=O [Griseofulvin] | 1.55 ± 0.038 | 1.5 ± 0.018 | 0.411 ± 0.11 | – | 0.794 ± 0.063 | 0.333 ± 0.1
15 | c1cnc(N2CCN(Cc3ccc4c(c3)OCO4)CC2)nc1 [Piribedil hydrochloride] | 1.54 ± 0.2 | 1.29 ± 0.074 | 1.78 ± 0.52 | – | 1.03 ± 0.1 | 1.02 ± 0.13
16 | CN(CCOc1ccc(CC2SC(=O)NC2=O)cc1)c1ccccn1 (stereo unspecified) [Rosiglitazone maleate] | 1.66 ± 0.17 | 1.16 ± 0.077 | 1.91 ± 0.95 | – | 1.45 ± 0.16 | 1.23 ± 0.09
17 | O=c1[nH]c(=O)n([C@H]2C[C@H](O)[C@@H](CO)O2)cc1F [Floxuridine] | 1.3 ± 0.062 | 0.961 ± 0.056 | 0.684 ± 0.24 | – | 1.01 ± 0.1 | 0.889 ± 0.21
18 | C[n+]1ccccc1/C=N/O [Pralidoxime chloride] | 1.19 ± 0.16 | 1.22 ± 0.018 | 0.583 ± 0.073 | – | 0.861 ± 0.11 | 0.839 ± 0.28
19 | CCc1c2c(nc3ccc(OC(=O)N4CCC(N5CCCCC5)CC4)cc13)-c1cc3c(c(=O)n1C2)COC(=O)[C@]3(O)CC [Irinotecan hydrochloride] | 1.34 ± 0.13 | 0.454 ± 0.011 | 0.0843 ± 0.034 | – | – | –
20 | CNCCCN1c2ccccc2CCc2ccccc21 [Desipramine hydrochloride] | 0.316 ± 0.12 | 0.0877 ± 0.014 | 0.0173 ± 0.015 | – | 0.934 ± 0.74 | 0.617 ± 0.62
21 | CO/N=C(\C(=O)N[C@@H]1C(=O)N2C(C(=O)O)=C(COC(N)=O)CS[C@H]12)c1ccco1 [Cefuroxime] | 1.28 ± 0.085 | 1.36 ± 0.19 | 1.03 ± 0.62 | – | 0.681 ± 0.25 | 1.02 ± 0.82
22 | O=c1c(-c2ccccc2)c1-c1ccccc1 [Diphenylcyclopropenone] | 0.0413 ± 0.031 | 0.112 ± 0.047 | 0.00277 ± 0.00018 | 0.000854 ± 0.00037 | 0.0264 ± 0.046 | –
23 | CO[C@H]1/C=C/O[C@@]2(C)Oc3c(C)c(O)c4c(O)c(c(/C=N/N5CCN(C)CC5)c(O)c4c3C2=O)NC(=O)/C(C)=C\C=C\[C@H](C)[C@H](O)[C@@H](C)[C@@H](O)[C@@H](C)[C@H](OC(C)=O)[C@@H]1C [Rifampicin] | 2.32 ± 0.11 | 1.82 ± 0.29 | 0.234 ± 0.15 | – | 0.448 ± 0.039 | 0.401 ± 0.062
24 | O=C1CCc2ccc(OCCCCN3CCN(c4cccc(Cl)c4Cl)CC3)cc2N1 [Aripiprazole] | 0.0727 ± 0.035 | 0.061 ± 0.023 | 0.0233 ± 0.033 | 0.00155 ± 0.0019 | 1.95 ± 0.37 | –
25 | O=C1Cc2cc(CCN3CCN(c4nsc5ccccc45)CC3)c(Cl)cc2N1 [Ziprasidone] | 1 ± 0.16 | 0.924 ± 0.27 | 0.173 ± 0.14 | – | 0.954 ± 0.55 | 1.01 ± 0.39
